# Experimental data taken from the supplement of paper PMC4166925.
# ± gives the standard deviation of the averaged measurements. Whole data set: some 33,000 sequences, median “E-score (dimensionless, -0.5 to 0.5)” near -0.049, cut for the highest 2% near 0.37. The list shows a part of the results.
# Test system: T1, PmTbr T-box DNA-binding domain (GST fusion)
# T1 sequence: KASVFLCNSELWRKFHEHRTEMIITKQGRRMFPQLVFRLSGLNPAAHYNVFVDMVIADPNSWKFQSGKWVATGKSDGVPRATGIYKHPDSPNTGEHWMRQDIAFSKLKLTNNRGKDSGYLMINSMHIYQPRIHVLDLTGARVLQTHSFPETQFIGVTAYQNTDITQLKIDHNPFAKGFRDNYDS
# Test: PBM E-score of 8-mer (E-score (dimensionless, -0.5 to 0.5)); Tbr is Tbrain of the sea star Patiria miniata (Pm) or the sea urchin Strongylocentrotus purpuratus (Sp); higher = stronger binding preference; most listed sequences are background and not binding sites
# Conditions: the construct has about 5 more residues each side
# Method in brief: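 Using the Universal PBM Analysis Suite, every ungapped 8-mer received an enrichment E-score averaged over duplicate arrays. Probe intensities came from double-stranded Universal Agilent oligonucleotide arrays incubated with 200 nM GST-fused Tbr T-box DNA-binding domain in PBS (pH 7.5). That protein was expressed in BL21 E. coli at 20 °C and purified by glutathione affinity chromatography.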
row,Sequence,PBM E-score of 8-mer
1,CCCCTGTC,0.0837 ± 0.059
2,CCGTTTTC,-0.148 ± 0.0081
3,ACCTTGTA,0.0536 ± 0.036
4,GATCCCTA,-0.0615 ± 0.069
5,GTCGGTGA,0.0735 ± 0.024
6,CACGAAAA,-0.0134 ± 0.06
7,CAAAACTA,-0.0488 ± 0.099
8,AAGCTGCC,-0.00336 ± 0.034
9,AATCCTCA,-0.131 ± 0.017
10,GGATCGAA,-0.26 ± 0.04
11,CAACCGTA,-0.232 ± 0.0094
12,AAATAGCG,0.202 ± 0.026
13,CGCTATCA,0.233 ± 0.0098
14,GACGCACC,0.0867 ± 0.088
15,ACGCTGCA,-0.0255 ± 0.039
16,CCGAGAAC,0.178 ± 0.035
17,AAGCTCAT,-0.0854 ± 0.021
18,CCTCACCC,0.181 ± 0.075
19,GCTCTCAC,0.315 ± 0.0058
20,AGGATCCA,-0.102 ± 0.013
21,AACCTCTT,-0.205 ± 0.095
22,AACGCTAC,-0.0105 ± 0.07
23,GCAAATCA,0.126 ± 0.025
24,ATATCGTC,0.108 ± 0.035
25,AAGTCCGC,0.0371 ± 0.017

row,Sequence,PBM E-score of 8-mer
1,CTCCGCTA,0.101 ± 0.021
2,CGCCTGCC,0.263 ± 0.0064
3,GCTACCGA,0.0575 ± 0.082
4,AGGTCCGG,-0.276 ± 0.07
5,ACAGAACG,0.00384 ± 0.043
6,GAAAGTTC,-0.112 ± 0.0094
7,GATCGAAA,-0.164 ± 0.081
8,GAAGATTC,-0.0862 ± 0.056
9,AAGAGTTC,-0.241 ± 0.015
10,TCCTTCGA,-0.125 ± 0.026
11,ATAAGGTA,0.0248 ± 0.096
12,CCGCCTAA,-0.178 ± 0.0036
13,GCTGCCGA,-0.0169 ± 0.12
14,GTACTCTA,-0.185 ± 0.011
15,CTTTCGCC,-0.0672 ± 0.025
16,GAACACTC,0.0811 ± 0.024
17,ACAACGCT,0.168 ± 0.0037
18,AGTAGGTA,-0.0493 ± 0.079
19,AGACAAGA,-0.16 ± 0.047
20,TAACACAA,0.313 ± 0.0094
21,CGGTAGAC,-0.145 ± 0.0061
22,AATTGCGA,0.285 ± 0.0031
23,AACGTCCT,-0.202 ± 0.044
24,AATATCAA,0.0637 ± 0.1
25,AGCTTGGA,-0.1 ± 0.021

row,Sequence,PBM E-score of 8-mer
1,ACAGGTCC,0.0798 ± 0.068
2,AGATCTTC,0.127 ± 0.021
3,GATAGAAC,-0.084 ± 0.039
4,ATTGCTGA,-0.0602 ± 0.042
5,ATCCGGAC,-0.106 ± 0.047
6,CTCGAGCC,-0.182 ± 0.013
7,AAGAACGC,-0.22 ± 0.033
8,ATTGGTTG,-0.281 ± 0.035
9,CTGTAATA,0.0664 ± 0.053
10,ATAAAAAT,-0.065 ± 0.15
11,CCCGGGGA,-0.0818 ± 0.0019
12,CCCCATTA,-0.155 ± 0.0091
13,ATTTACAC,0.318 ± 0.06
14,GAATGTAC,-0.0286 ± 0.0058
15,CCGGCCAG,-0.0265 ± 0.056
16,CAATGTAC,-0.0989 ± 0.028
17,GGATCAAC,-0.0228 ± 0.035
18,ATACTAGC,0.08396 ± 9.2e-05
19,GATGACTA,-0.194 ± 0.0088
20,ATTAGGAA,-0.146 ± 0.019
21,AACGTTAA,-0.043 ± 0.00075
22,AGCGGACT,-0.215 ± 0.031
23,GATTTCCC,-0.0739 ± 0.12
24,CGGCTAAC,0.0126 ± 0.015
25,AAGTAATG,-0.0413 ± 0.069

row,Sequence,PBM E-score of 8-mer
1,CGGACGGC,-0.172 ± 0.023
2,AGTTCGCC,0.0555 ± 0.091
3,ATGTGGCA,0.256 ± 0.0097
4,AATGCTAG,-0.0869 ± 0.0055
5,AAGCGATA,0.198 ± 0.033
6,CGGAGATC,-0.19 ± 0.032
7,CAACTCTA,0.0709 ± 0.032
8,ACCTTATG,0.131 ± 0.075
9,GTCAATAA,0.0466 ± 0.054
10,TATGATGA,-0.156 ± 0.037
11,CGCTACAA,0.0744 ± 0.055
12,AAGTTTTG,0.049 ± 0.13
13,CGAAACGA,0.2163 ± 0.0013
14,GCGGGCGA,0.02876 ± 0.00013
15,AGATCTAC,-0.114 ± 0.069
16,ATAGATGC,-0.0482 ± 0.036
17,CAGTCGGA,-0.0653 ± 0.029
18,CTGAGTGC,0.0699 ± 0.053
19,CTACTAAA,-0.158 ± 0.075
20,CTTGGTTA,-0.122 ± 0.063
21,GACCCGTA,-0.0692 ± 0.019
22,CCGGGCCA,-0.128 ± 0.0042
23,GTAAAGCA,-0.27 ± 0.06
24,ATAAATAC,-0.0571 ± 0.11
25,AAATAATC,0.0627 ± 0.091

row,Sequence,PBM E-score of 8-mer
1,ACGCGTTC,0.138 ± 0.014
2,CGACTCCG,0.0188 ± 0.066
3,TGGGCAAA,0.0013 ± 0.12
4,AAAGCGCA,-0.0352 ± 0.027
5,CTAAAATA,0.0202 ± 0.064
6,GAGCCATC,-0.0135 ± 0.0062
7,CCACGAAA,-2e-05 ± 0.0046
8,CCCTCCCG,-0.199 ± 0.019
9,AACTCCCG,-0.0998 ± 0.034
10,TTACTCAA,-0.0164 ± 0.0015
11,CATGCCAA,-0.0187 ± 0.084
12,ATGAAAGA,0.0147 ± 0.061
13,ACTCGGCC,0.0187 ± 0.094
14,CTTCCCCC,-0.166 ± 0.07
15,ATGCATAC,-0.0833 ± 0.01
16,AGCCATAG,-0.0194 ± 0.015
17,AGTGGTGA,0.23181 ± 0.00023
18,ACAAAACA,0.15 ± 0.026
19,CCGGACGC,-0.215 ± 0.11
20,ATGTAGTG,0.077 ± 0.043
21,GTTATAAA,0.099 ± 0.062
22,CTCACAGA,0.118 ± 0.06
23,GTTAGTAA,-0.0176 ± 0.018
24,AAGACTTG,-0.0606 ± 0.04
25,AGTTGCAG,-0.0251 ± 0.01

row,Sequence,PBM E-score of 8-mer
1,ACTTGATA,0.136 ± 0.066
2,CTGCGCCC,-0.159 ± 0.12
3,CCTTTACC,-0.0485 ± 0.032
4,CGATTGCG,0.0928 ± 0.028
5,AAGCTCCC,-0.33 ± 0.026
6,GGTTATGA,-0.107 ± 0.053
7,GGTGATCA,0.247 ± 0.025
8,CAGGCTCA,-0.243 ± 0.0038
9,GGCTAAGA,-0.278 ± 0.05
10,AACCAGTT,-0.0812 ± 0.0099
11,AGCGCCGG,0.00509 ± 0.059
12,ACGGAGTA,-0.279 ± 0.052
13,AGACATTG,-0.181 ± 0.025
14,TACTGAAA,-0.104 ± 0.051
15,GCCCCGAC,-0.132 ± 0.069
16,CGTACACC,0.0939 ± 0.0018
17,AAAGGGCT,-0.2 ± 0.024
18,ACGCGCGT,0.279 ± 0.011
19,AGCCTCGG,-0.2 ± 0.0076
20,AGATGTCA,0.0756 ± 0.01
21,ACGTACAC,0.161 ± 0.093
22,TATTATAA,0.0461 ± 0.053
23,CCAAAACG,-0.116 ± 0.027
24,CCACAGGA,-0.187 ± 0.016
25,AAGAGCCC,-0.245 ± 0.016

row,Sequence,PBM E-score of 8-mer
1,TACACCAA,0.0439 ± 0.018
2,AGGCCACT,-0.135 ± 0.061
3,TCGCAGAA,0.105 ± 0.07
4,AATAGTCT,-0.175 ± 0.032
5,ACAGTTTC,0.143 ± 0.058
6,TACCAAGA,-0.122 ± 0.058
7,ATGTCGGC,-0.137 ± 0.042
8,GCAGTTGA,-0.00204 ± 0.027
9,CCCCAGCA,-0.0835 ± 0.13
10,AACTGCCC,-0.0599 ± 0.028
11,CACCCGAC,0.26 ± 0.037
12,CTGGCGTC,0.128 ± 0.01
13,ATTCCCTA,-0.181 ± 0.05
14,CCTTTTCA,0.129 ± 0.045
15,AAGCGCCA,0.0797 ± 0.027
16,AGTCCAAA,-0.0523 ± 0.057
17,ACTTCAAT,0.0286 ± 0.051
18,ATTGTTGC,0.093 ± 0.0053
19,AGCTACTC,-0.12 ± 0.048
20,GCTACATA,-0.0401 ± 0.1
21,CCACGACC,-0.1558 ± 0.0013
22,AGCCACTA,0.0231 ± 0.014
